The antibiotic and cytotoxicity screens of Wong et al. (2023)
Some of the results follow.

How the values were obtained:
HSkMC = human skeletal muscle cells; assay: cytotoxicity call (relative viability < 0.9); details: 10 µM
HepG2 = assay: cytotoxicity call (relative viability < 0.9); details: 10 µM
S. aureus RN4220 = assay: growth inhibition call (relative growth <= 0.2); details: 50 µM

O=C(O)[C@H]1/C(=C/CO)O[C@@H]2CC(=O)N21
inactive: cytotoxicity call (HSkMC) | cytotoxicity call (HepG2) | growth inhibition call (S. aureus RN4220)

CN1CC2(CCN(C(=O)[C@H]3CCC(=O)N3)CC2)COc2ccccc2S1(=O)=O
inactive: cytotoxicity call (HSkMC) | cytotoxicity call (HepG2) | growth inhibition call (S. aureus RN4220)

C[C@H](CO)N1C[C@H](C)[C@H](CN(C)S(C)(=O)=O)Oc2ccc(NC(=O)Cc3ccccc3)cc2C1=O
inactive: cytotoxicity call (HSkMC) | cytotoxicity call (HepG2) | growth inhibition call (S. aureus RN4220)

CC(=O)OC[C@@H](OC(C)=O)[C@H](OC(C)=O)[C@H](OC(C)=O)[C@H](OC(C)=O)[C@@H](COC(C)=O)OC(C)=O
inactive: cytotoxicity call (HSkMC) | cytotoxicity call (HepG2) | growth inhibition call (S. aureus RN4220)

C[C@@H]1CCCCO[C@H](CN(C)Cc2ccc(C(=O)O)cc2)[C@@H](C)CN([C@H](C)CO)C(=O)c2cc(NC(=O)Cc3ccccc3)ccc2O1
inactive: cytotoxicity call (HSkMC) | cytotoxicity call (HepG2) | growth inhibition call (S. aureus RN4220)

C[C@@H]1CCCCO[C@@H](CN(C)Cc2ccc(C(=O)O)cc2)[C@@H](C)CN([C@H](C)CO)C(=O)c2cc(NC(=O)Nc3ccccc3)ccc2O1
inactive: cytotoxicity call (HSkMC) | cytotoxicity call (HepG2) | growth inhibition call (S. aureus RN4220)

C[C@@H]1CCCCO[C@@H](CN(C)C(=O)Nc2ccc(C(F)(F)F)cc2)[C@@H](C)CN([C@H](C)CO)C(=O)c2cc(NC(=O)Nc3ccccc3)ccc2O1
inactive: cytotoxicity call (HSkMC) | cytotoxicity call (HepG2) | growth inhibition call (S. aureus RN4220)

C[C@@H]1CN([C@@H](C)CO)C(=O)c2cc(NC(=O)Nc3cccc4ccccc34)ccc2O[C@H]1CN(C)C(=O)Nc1ccccc1
inactive: cytotoxicity call (HSkMC) | cytotoxicity call (HepG2) | growth inhibition call (S. aureus RN4220)

C[C@@H]1CCCCO[C@@H](CN(C)Cc2ccc3c(c2)OCO3)[C@H](C)CN([C@H](C)CO)C(=O)c2cc(NC(=O)C3CCCCC3)ccc2O1
inactive: cytotoxicity call (HSkMC) | cytotoxicity call (HepG2) | growth inhibition call (S. aureus RN4220)
